# Experimental data published in PMC4336329 (PLoS ONE, 2015).
# The campaign covered roughly 310,000 compounds. About 2,200 (0.71%) showed an effect of 50% or more. The effect is printed as a negative number. Some of the results follow.
# Molecular target: human ether-à-go-go-related gene (hERG) potassium channel (human, UniProt Q12809)
# Experiment: primary screen, population patch clamp on CHO cells stably expressing hERG
# Sequence of human ether-à-go-go-related gene (hERG) potassium channel (Q12809 whole entry, looked up): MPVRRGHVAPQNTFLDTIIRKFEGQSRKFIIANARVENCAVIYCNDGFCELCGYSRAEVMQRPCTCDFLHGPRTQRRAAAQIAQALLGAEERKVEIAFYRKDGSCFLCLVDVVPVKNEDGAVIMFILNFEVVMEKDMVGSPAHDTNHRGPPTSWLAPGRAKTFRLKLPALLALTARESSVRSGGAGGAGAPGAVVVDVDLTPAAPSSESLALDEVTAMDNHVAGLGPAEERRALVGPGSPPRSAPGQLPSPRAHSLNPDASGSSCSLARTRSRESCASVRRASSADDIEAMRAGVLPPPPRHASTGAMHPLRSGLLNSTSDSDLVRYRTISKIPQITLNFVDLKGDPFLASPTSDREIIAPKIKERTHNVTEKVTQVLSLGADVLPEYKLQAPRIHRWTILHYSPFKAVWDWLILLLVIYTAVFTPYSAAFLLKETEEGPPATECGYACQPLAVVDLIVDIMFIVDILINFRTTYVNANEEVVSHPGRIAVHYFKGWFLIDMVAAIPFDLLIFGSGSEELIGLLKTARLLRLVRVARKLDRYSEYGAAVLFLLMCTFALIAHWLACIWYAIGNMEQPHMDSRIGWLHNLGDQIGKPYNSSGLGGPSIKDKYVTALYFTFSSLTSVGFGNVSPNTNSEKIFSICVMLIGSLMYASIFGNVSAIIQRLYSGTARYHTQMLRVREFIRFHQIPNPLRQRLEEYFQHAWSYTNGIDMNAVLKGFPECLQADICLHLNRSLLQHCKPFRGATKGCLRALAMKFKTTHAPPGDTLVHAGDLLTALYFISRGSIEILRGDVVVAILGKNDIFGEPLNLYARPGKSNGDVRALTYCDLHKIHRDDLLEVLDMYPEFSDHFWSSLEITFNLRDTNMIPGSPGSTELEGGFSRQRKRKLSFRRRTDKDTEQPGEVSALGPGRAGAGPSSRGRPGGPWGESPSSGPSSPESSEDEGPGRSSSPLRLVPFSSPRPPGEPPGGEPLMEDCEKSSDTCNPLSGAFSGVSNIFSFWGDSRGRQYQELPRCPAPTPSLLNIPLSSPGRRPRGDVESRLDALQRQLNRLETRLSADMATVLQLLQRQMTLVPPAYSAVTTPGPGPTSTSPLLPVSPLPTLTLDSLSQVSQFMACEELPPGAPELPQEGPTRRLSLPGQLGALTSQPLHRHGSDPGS
row,Compound,"hERG current change (%, negative = inhibition) at 1uM [%]"
1,Cc1cc2c(cc(C(=O)OC(C(=O)NC3CCCCC3)C(C)C)n2C)o1 (stereo not shown),11.2
2,CCCn1c(SCC(=O)Nc2cc(S(=O)(=O)N3CCOCC3)ccc2Cl)n[nH]c1=O,7.54
3,COc1cc(Br)cc(C2C3=C(CCCC3=O)N(c3ccc(F)cc3)C3=C2C(=O)CCC3)c1O,3.12
4,Cc1cc(C(=O)CSc2nnnn2-c2ccccc2)c(C)n1CCc1ccccc1,14.8
5,N=C1C(c2nc(-c3ccc(F)cc3)cs2)=C(O)CN1CCCN1CCOCC1,-1.21
6,CCn1c(SCC(=O)Nc2cc(C)nn2-c2ccccc2)nnc1-c1cccs1,6.59
7,COc1cccc(NC(=O)CN(C)C(=O)c2ccc(-c3ccc(Cl)cc3)o2)c1,16.8
8,CCOC(=O)C1=Nc2ccccc2/C1=C\c1c(O)n(C)c(=O)n(C)c1=O,10
9,CCN(CC)c1ccc(/C=C/c2ccc3ccc(OC)cc3[n+]2CC)cc1.[I-],-85
10,CC1(C)C(=O)OC(C(=O)c2ccccc2)C2(CCCCC2)C1=O (stereo not shown),8.37
11,Cc1ccc(/C=N/NC(=O)c2ccco2)cc1,12.6
12,COc1cccc(N2C(=NC(=O)C3CCCO3)SC3CS(=O)(=O)CC32)c1 (stereo not shown),10.6
13,O=C(C1CCN(c2ncnc3c2nc2n3CCCCC2)CC1)N1CCN(c2ccc(F)cc2)CC1,-3.19
14,Nc1cccc(-c2cnc3ccccc3n2)c1,17.6
15,COc1ccc(CCNC(=O)c2cccc(C(=O)NCCc3ccc(OC)cc3)n2)cc1,-1.57
16,CCC(=O)Nc1cccc(C2=NOC3(C2)C[C@@H](C(N)=O)N(C(=O)c2ccccc2C(=O)c2ccccc2)C3)c1 (stereo partly shown),6.86
17,Cc1nc(SCC(=O)NCc2ccco2)[nH]c(=O)c1C,16.9
18,COc1ccc(COC(=O)C2CCN(S(=O)(=O)c3ccc(F)cc3)CC2)cc1,4.6
19,O=S(=O)(Cc1ccccc1)NCC1CCCN(Cc2cccc3nonc23)C1 (stereo not shown),-10.3
20,COc1ccc(C(=O)Nc2cc3c(cc2N2CCCCC2)n(C)c(=O)n3C)cc1OC,17.1
21,COc1ccc(/C=C2\CCC(C3CCCC3)C2=O)c(OC)c1 (stereo not shown),10.1
22,COc1ccccc1-c1nnc(SCC(=O)c2c(N)n(C3CC3)c(=O)[nH]c2=O)o1,5.55

row,Compound,"hERG current change (%, negative = inhibition) at 1uM [%]"
1,CCC(Oc1ccccc1OC)C(=O)Nc1ccc2c(c1)n(C)c(=O)n2C (stereo not shown),7.49
2,O=C(C1CC(c2ccc(Cl)c(Cl)c2)=NO1)N1CCC2(CC1)OCCO2 (stereo not shown),-4.53
3,CC1=C(C)CC(C(=O)Nc2nc(C)cs2)C(C(=O)O)C1 (stereo not shown),15.1
4,COC(=O)c1ccccc1NC(=S)NC(=O)c1ccc2ccccc2c1,22.9
5,O=C(COC(=O)CCc1nc2ccccc2s1)Nc1cccc(S(=O)(=O)N2CCOCC2)c1,8.14
6,CCCCOC(=O)CCc1c(C)n[nH]c1C,1.65
7,Cc1csc(SCC(=O)N(C)c2c(N)n(Cc3ccccc3)c(=O)[nH]c2=O)n1,7.97
8,CCc1ccc(OCC(O)CN2CCN(c3ccccn3)CC2)cc1.Cl (stereo not shown),-45.9
9,CCOC(=O)CSc1nc(C)c2cc(OC)ccc2n1,8.23
10,CC(C)c1ccc(NCCC(=O)c2cccs2)cc1,5.04
11,O=C(NCc1ccccc1Cl)/C(=C\c1cccnc1)NC(=O)c1ccccc1,-10.3
12,Cc1csc(NC(=O)c2ccc(C)s2)n1,9.89
13,O=C(NCc1ccco1)/C(=C\c1ccco1)NC(=O)c1cccs1,-1.88
14,CCCCNC(=O)c1onc(CSc2ccc(Cl)cc2)c1C(=O)O,-0.733
15,CCN1CCN(Cc2c(O)ccc3c(=O)c(-c4ccc(OC)c(OC)c4)c(C(F)(F)F)oc23)CC1,2.89
16,CCOC(=O)Cc1csc(NC(=O)c2ccoc2C)n1,7.62
17,N#CCC(N)=C(C#N)C#N,-3.07
18,Cc1onc(-c2ccccc2)c1C(=O)N1CCN(c2ccccc2)CC1,16.1
19,COCC(=O)N1CCC(Oc2ccc(C(=O)NC(C)c3nc(C)sc3C)cc2)CC1 (stereo not shown),14.6
20,c1ccc(Cn2nnnc2-c2ccco2)cc1,1.7
21,Cc1cc(C)c(NC(=O)c2ccc(CN3CCc4ccccc4C3)cc2)c(C)c1,9.29
